Structures are written as SMILES. Values joined by “and” are separate entries in the source; they are usually repeats but may differ in a detail not shown here. Identical values can stand only once. The campaign covered roughly 16,000 compounds. About 40 (0.2%) were called active. Not shown: some 1% with an inconclusive outcome. Calls follow the shape of the dose curve; as a rule, active = well fitted activation curve with a large enough effect; inconclusive = small, poorly fitted or top-dose-only effect, or another doubt; inactive = no such curve, though single readings can be large or run the other way. The list shows a part of the results.
% is scaled to controls: 0 for no effect and ±100 for the full control effect.

For this assay, the target named is Rap guanine nucleotide exchange factor 4 (Homo sapiens) (UniProt Q8WZA2). The experiment in a line: Validation qHTS for agonist of cAMP-regulated guanine nucleotide exchange factor 4 (EPAC2).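 Also: exchange makes BODIPY-GDP fluorescence drop when released from Rap1B; series mostly up to about 150 µM.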 Conditions: EPAC2 Rap1B BODIPY-GDP exchange, fluorescence; activation: hits give high values. In outline: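 Signal normalized against 6.5 mM cAMP as agonist control. Mix of EPAC2 (100 nM), RAP1B-BODIPY-GDP (250 nM) and GDP (50 uM) was read kinetically at 480/540 nm, every 5 min over 30 min, after 5 min room-temperature incubation with compound.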
UniProt Q8WZA2, sequence (Q8WZA2 whole entry, looked up): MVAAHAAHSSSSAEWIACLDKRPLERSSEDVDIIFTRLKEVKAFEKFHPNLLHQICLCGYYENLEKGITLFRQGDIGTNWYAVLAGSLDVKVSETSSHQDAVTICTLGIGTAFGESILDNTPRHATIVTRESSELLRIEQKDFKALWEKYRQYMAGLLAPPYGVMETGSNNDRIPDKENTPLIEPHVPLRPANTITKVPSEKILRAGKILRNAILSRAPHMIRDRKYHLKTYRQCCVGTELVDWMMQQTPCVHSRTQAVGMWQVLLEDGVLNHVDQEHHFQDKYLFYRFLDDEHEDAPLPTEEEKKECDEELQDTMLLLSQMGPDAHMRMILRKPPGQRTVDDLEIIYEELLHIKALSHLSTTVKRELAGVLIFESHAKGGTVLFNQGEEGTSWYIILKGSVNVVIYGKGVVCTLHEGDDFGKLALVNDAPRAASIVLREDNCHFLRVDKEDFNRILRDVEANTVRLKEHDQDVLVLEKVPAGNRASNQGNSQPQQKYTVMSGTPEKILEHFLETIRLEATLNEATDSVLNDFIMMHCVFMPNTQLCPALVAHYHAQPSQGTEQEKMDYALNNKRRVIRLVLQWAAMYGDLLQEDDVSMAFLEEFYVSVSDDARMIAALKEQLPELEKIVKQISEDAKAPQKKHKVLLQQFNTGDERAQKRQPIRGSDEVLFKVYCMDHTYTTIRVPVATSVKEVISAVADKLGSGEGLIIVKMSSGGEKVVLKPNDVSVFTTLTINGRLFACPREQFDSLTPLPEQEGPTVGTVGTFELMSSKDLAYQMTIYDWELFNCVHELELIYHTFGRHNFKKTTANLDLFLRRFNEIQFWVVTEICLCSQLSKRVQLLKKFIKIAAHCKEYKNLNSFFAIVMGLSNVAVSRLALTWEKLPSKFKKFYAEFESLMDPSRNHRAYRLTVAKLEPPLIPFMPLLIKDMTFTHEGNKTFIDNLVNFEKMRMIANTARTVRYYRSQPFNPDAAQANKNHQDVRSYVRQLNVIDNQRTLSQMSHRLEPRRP
On the technique in general: In qHTS, concentration-response curves come from the screen itself.
With `O=C(c1cnccn1)N1CCC2(CCCN(c3ccc(-c4ccccc4)cc3)C2)CC1`, the activation was inactive: -24.9%.
For the compound `C=C(c1ccc(C(=O)O)cc1)c1cc2c(cc1C)C(C)(C)CCC2(C)C`, the activation is inactive: -7.18%.
With `C#C[C@]1(O)CC[C@H]2[C@@H]3CCC4=C(CCC(=O)C4)[C@H]3CC[C@@]21C`, the activation is inactive: -7.58%.
Take `O=C(Nc1cc(C(=O)N2CCN(CCO)CC2)c2c(c1)ncn2C1CCCC1)c1ccccc1`: the activation was inactive: -2.25%.
As for `COc1ccc(NC(=O)N2CCCC3(CCN(C(=O)c4cnccn4)CC3)C2)cc1`, the activation was inactive: -10.2%.
`COc1ccc(Oc2ncc3nc(-c4cccs4)c(=O)n(Cc4cccs4)c3n2)cc1`: the activation was inactive: -17.1%.
`CC(CN1c2ccccc2Sc2ccc(S(=O)(=O)N(C)C)cc21)N(C)C` (configuration not stated): the activation was inactive: -29.4%.
Consider `Cc1nc(NCc2cnn(C)c2)sc1-c1ccn(-c2cccc(F)c2)n1`, for which the activation is inactive: -14.3%.
For the compound `CC[N+](CC)(CC)CCOc1cccc(OCC[N+](CC)(CC)CC)c1OCC[N+](CC)(CC)CC`, the activation is inactive: -2.24% and inactive: -39.1%.
On to `COc1cc(=O)n2c(c1C(=O)NCc1ccco1)CCN(Cc1ccc(F)cc1Cl)CC2`, for which the activation is inactive: -0.201%.
In the case of `CCN(CC)c1ccccc1/C=C/[n+]1ccc(CCCCI)c2ccccc21`, the activation was inactive: -41.3%.
The figure for `CC(C)(C)NCC(O)c1cc(O)cc(O)c1` (configuration not stated) is inactive: 7.45% and inactive: 11.3% and inactive: 10.6%; for `NS(=O)(=O)c1cc2c(cc1Cl)NC(CC1CCCC1)NS2(=O)=O` (configuration not stated) it is inactive: -8.89%.
Take `Cc1ccc(C)c(CN2C[C@H](Sc3nc4ccccc4[nH]3)C[C@H]2C(=O)N2CCCN(C)CC2)c1`: the activation was inactive: 10.1%.
As for `O=C(O)C1CC[C@@](C(=O)O)(c2ccccc2)c2ccccc21` (some centres not stated), the activation was inactive: 0.368%.
As for `COc1cc(/C(C)=C/c2ccccc2)c2c(c1)oc1ccccc12`, the activation was inactive: -19%.
As for `COc1ccc(-c2nc3cnc(N4CCNCC4)nc3n(CCc3ccccc3)c2=O)cc1`, the figure is inactive: -0.925%; as for `C[C@@H]1CN(Cc2ccc3c(c2)CN(C(=O)CCc2nc4ccc(F)cc4[nH]2)CCO3)C[C@H](C)O1`, inactive: 0.162%.
As for `CC(C)[C@H](N)C(=O)OCC(CO)OCn1cnc2c(=O)[nH]c(N)nc21` (some centres not stated), the figure is inactive: -2.58%.
As for `CCC1COCCS(=O)(=O)N1Cc1ccccc1` (configuration not stated), the activation is inactive: -25.9%.
The figure for `COCC(=O)N1CCC2(CC1)CCN(c1cccc(-c3ccccc3)c1)CC2` is inactive: 4.89%; for `COc1ccc(F)c(CN2CCOc3ccc(CN4CCC(Oc5cccnc5)CC4)cc3C2)c1` it is inactive: -7.47%; for `CCC1CN(CCNC(=O)C(C)(C)O)Cc2cc(OC)ccc2O1` (configuration not stated) it is inactive: -6.09%.
As to `C=CC(C)(O)CCCC(C)CCCC(C)CCCC(C)C` (configuration not stated), the activation was inactive: -34.6%.
Take `OC[C@H]1NC[C@H](O)[C@@H](O)[C@H]1O`: the activation is inactive: -2.39%.
Turning to `CN1CCC[C@@H]1CCO[C@](C)(c1ccccc1)c1ccc(Cl)cc1`, the activation is inactive: -41.4% and inactive: -4.86%.
On to `Clc1cccc[n+]1CCCCCC[n+]1ccccc1Cl`, for which the activation was inactive: -33.3%.
On to `CCOc1ccc(NC(C)=O)cc1`, for which the activation was inactive: -4.28% and inactive: -8.11%.
Turning to `COc1cc2ncnc(Nc3ccc(F)c(Cl)c3)c2cc1OCCCN1CCOCC1`, the activation is inactive: -11.9%.
The figure for `CC(=O)NCCNc1nc(-c2cccnc2)nc2ccccc12` is inactive: -2.17%; for `Cc1cc2c(c(-c3nc4ccccc4s3)c1)OC(CNC(=O)c1occc1C)C2` (configuration not stated) it is inactive: -3.65%.
With `Nc1cccc2c(N)cccc12`, the activation was inactive: -5.3%.
Turning to `Cc1cc(=O)[nH]c2ccc([N+](=O)[O-])cc12`, the activation was inactive: -9.2%.
`COC(=O)[C@@H]1CCCN1C(=O)c1c(OC)cc(=O)n2c1CCN(Cc1ccc(C)o1)CC2`: the activation is inactive: 2.82%.
Consider `c1ccc(Nc2ncnc3ccc(-c4ccc5c(c4)OCO5)cc23)cc1`, for which the activation was inactive: -27.9%.
The figure for `COc1ccc(-n2c(=O)c(CCc3ccccc3)nc3cnc(OC)nc32)cc1` is inactive: -13.6%.
With `CCCCCCCCN1[C@@H](CC(=O)OC)c2ccc(/C=C/C(=O)OC)cc2S1(=O)=O`, the activation was inactive: -11.9%.
As to `CC(C(=O)O)c1ccc(C(=O)c2cccs2)cc1` (configuration not stated), the activation is inactive: 5.85% and inactive: -16.1%.
With `CN(CC1COCCO1)C(=O)c1cnn(-c2nccc(-c3ccccc3C(F)(F)F)n2)c1C1CC1` (configuration not stated), the activation was inactive: -13.1%.
Regarding `CCCN1CCC(=O)N([C@H](CSc2ccccc2)c2ccccc2)CC1`, the activation was inactive: -10.4%.
As for `O=C(CCc1cccnc1)NCC1Cc2cccc(-c3ncccn3)c2O1` (configuration not stated), the figure is inactive: -3.65%.
Turning to `CN(Cc1ccco1)c1ncncc1-c1cccc(C#N)c1`, the activation was inactive: 2.43%.
As for `COc1ccc(/C=C/C(=O)c2ccc(OC)cc2OC)cc1`, the activation is inactive: 11.9%.
Turning to `COc1ccccc1-c1ccc2ncnc(NCc3ccccc3)c2c1`, the activation is inactive: -0.437%.
As for `O=C(O)c1cccnc1C(=O)O`, the activation is inactive: 7.75% and inactive: -12.5% and inactive: -13.3%.
Regarding `O=C1CCC(=O)N1CO`, the activation is inactive: -16.5%.
As for `CCCCC[C@H](O)/C=C/[C@H]1[C@H](O)CC(=O)[C@@H]1CCCCCCC(=O)O`, the figure is inactive: 6.8% and inactive: 3.01%; as for `CC(=O)Nc1ccc(C(=O)O)cc1`, inactive: 6.38%.
Turning to `CCC(=O)NCCC1CCc2ccc3c(c21)CCO3` (configuration not stated), the activation is inactive: 3.54%.
For the compound `Oc1ccc(C2Oc3cc(O)cc(O)c3CC2O)cc1` (configuration not stated), the activation was inactive: -2.91%.
Regarding `COc1ccccc1OC(=O)Oc1ccccc1OC`, the activation was inactive: -17.2%.
The figure for `COc1cccc(Cn2c(=O)cnc3cncnc32)c1` is inactive: 8.5%.
On to `O=C(NCC1(N2CCOCC2)CCCC1)c1cnn(-c2nccc(-c3cccs3)n2)c1C1CC1`, for which the activation was inactive: -31.5%.
In the case of `Cn1c(=O)cnc2cnc(Oc3ccccc3)nc21`, the activation was inactive: 3.31%.
With `O=c1[nH]cnc2c1ncn2C1CC(O)C(CO)O1` (configuration not stated), the activation is inactive: -7.74%.
In the case of `c1cn(-c2cc(-c3ccc4c(c3)OCO4)ncn2)cn1`, the activation is inactive: -17.3%.
Regarding `COc1ccc(-c2cc(=O)c3c(O)c(OC)c(O[C@@H]4OC(COC5OC(C)C(O)C(O)[C@@H]5O)C(O)C(O)C4O)cc3o2)cc1` (some centres not stated), the activation is inactive: -7.87%.
The figure for `CCN1CCC[C@H]1CNC(=O)c1c(O)c(Cl)cc(Cl)c1OC` is inactive: -10.2% and inactive: -16.6% and inactive: -19.1%.
The figure for `O=C(c1ccco1)N1CCC2(CC1)CCN(c1ccc(-c3ccccc3)cc1)CC2` is inactive: -0.171%; for `COc1ccc(OC)c(-c2cc(Cl)c3c(c2)CC(CNC(=O)C(C)N2CCOCC2)O3)c1` (configuration not stated) it is inactive: -13.4%; for `Cc1ccccc1CN1Cc2cccc3c2[C@H](C=CC3)CC1=O` it is inactive: -21.1%.
For `CCOC(=O)N(C(=O)c1ccccc1)c1ccccc1`, the activation was inactive: -31.5%.
With `COc1ccc(C(=O)Nc2ccccc2CCC2CCCCN2C)cc1` (configuration not stated), the activation is inactive: 7.33%.
In the case of `CN(C)c1ccc(-c2nccc(NCc3ccccc3)n2)cc1`, the activation was inactive: -13.3%.
Turning to `COc1cccc(CN2C(=O)NC(C)(C3CCN(Cc4cc(Cl)ccc4O)CC3)C2=O)c1OC` (configuration not stated), the activation was inactive: 0.915%.
In the case of `CN1CCN(c2ncc3nc(-c4ccccc4)c(=O)n(C4CC4)c3n2)CC1`, the activation was inactive: 5.59%.
The figure for `CCC1C(=O)NCCN1Cc1ccc2c(c1)CN(Cc1cc(OC)ccc1OC)CCO2` (configuration not stated) is inactive: -8.54%; for `COC(=O)C1=C(C)NC(C)=C(C(=O)OCC(C)C)C1c1ccccc1[N+](=O)[O-]` (configuration not stated) it is inactive: -30.9%.
`CC1(C)CCC(C)(C)c2cc(C(=O)Nc3ccc(C(=O)O)cc3)ccc21`: the activation was inactive: -16.2%.
Regarding `N[C@H](CCC(=O)NCC(=O)O)C(=O)O`, the activation was inactive: 1.75%.
The figure for `O=C(c1csnn1)N1CCC[C@@]2(CCN(c3ncccn3)C2)C1` is inactive: -8.33%.
As for `CCCN=C(N)NCCC[C@H](N)C(=O)O`, the activation was inactive: -9.59%.
The figure for `CCCCN(CCC(=O)O)c1ccc(/C=C/c2ccnc3ccccc23)cc1` is inactive: -31.5%; for `O=C(c1ccco1)N1CCC[C@@]2(CCN(Cc3nccs3)C2)C1` it is inactive: -9.87%.
In the case of `O=S(=O)(O)c1ccc2c(N=Nc3ccc(S(=O)(=O)O)c4ccccc34)c(O)c(S(=O)(=O)O)cc2c1`, the activation is inactive: -30.9%.
On to `COc1cc2c(cc1O)C(Cc1ccc(O)cc1)[N+](C)(C)CC2` (configuration not stated), for which the activation is inactive: -19.2%.
For `Nc1c(Br)cc(C=O)cc1Br`, the activation is inactive: -7.44%.
On to `COc1cc(-c2cc(C)c3c(OC)ccc(OC)c3n2)cc2c1OCCN(C(=O)CCn1ccc(C)n1)C2`, for which the activation was inactive: -3.01%.
With `O=c1cc(-c2ccc(O)cc2)oc2cc(O)ccc12`, the activation was inactive: -1.03%.
In the case of `N#Cc1ccccc1-c1nc(NCCN2CCOCC2)c2ccccc2n1`, the activation was inactive: -4.27%.
For `Cc1ccccc1CNc1ncnc2c1ncn2[C@@H]1O[C@H](CO)[C@@H](O)[C@H]1O`, the activation is inactive: -14.6%.
Regarding `O=C(c1cnccn1)N1CCC2(CCN(Cc3ccncc3)CC2)CC1`, the activation was inactive: -3.01%.
As for `Cc1noc(C)c1C(=O)N1CCC2(CCCN(c3ccccc3)C2)CC1`, the figure is inactive: 9.1%; as for `COC(=O)N1CCC[C@@]2(CCN(C(=O)Nc3cccc(C#N)c3)C2)C1`, inactive: -7.87%; as for `CCC(C)[C@H]1COCCS(=O)(=O)N1Cc1ccc(Br)cc1` (some centres not stated), inactive: -22.4%.
With `COC(=O)C1=C(C)NC(C)=C(C(=O)OCCN(C)Cc2ccccc2)C1c1cccc([N+](=O)[O-])c1` (configuration not stated), the activation is inactive: 9.02% and inactive: -0.903% and inactive: -25.3%.
Take `COc1ccc(-n2c(CNC(=O)c3cccc4ccccc34)nnc2SC)cc1`: the activation is inactive: 8.88%.

The record behind these values is PubChem BioAssay AID1645887 (National Center for Advancing Translational Sciences (NCATS), 2021).
